Laboratory results: PubChem BioAssay AID1963444 (Molecular Pharmacology Branch, DTP, NCI, 2024)
Certain results were filed several times, with different values. This is not the full list of results. An entry can have further records. The records of an entry are repeated measurements (runs, samples, wells, individuals or studies). Signs of the kind (2×) count equal records among those shown. Dates in brackets are months of testing.

System: HSSY-II complex spheroid growth, percent test/control
Experiment: Anticancer human tumor HSSY-II cell line growth inhibition [Asc];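 note: spheroids exposed to drug for 7 days before reading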
Settings: stronger effect = lower value
Description: Multicellular complex tumor spheroid response to apoptosis pathway targeting inhibitors Alrizomadlin, Pelcitoclax, and Dasminapant in combination with a variety of drugs and investigational agents in selected tumor cell lines
The MDM2 inhibitor alrizomadlin, the Bcl-2/Bcl-xL inhibitor pelcitoclax, and the IAPs inhibitor dasminapant were evaluated both individually and in combination with standard of care and investigational anticancer small molecules within a complex spheroid model of solid tumors. . Complex spheroids include a stromal component modeled by human endothelial cells (HUVEC) and fibroblasts modeled by human mesenchymal stem cells (MSCs). The concentration ranges selected for each drug and investigational agent were based upon clinically achievable concentrations if the clinical Cmax of the agent was known.
Compounds. The drugs and investigational agents: alrizomadlin (APG-115; NSC831270), pelcitoclax (APG-1252; NSC835773), dasminapant (APG-1387;NSC834197), TAK-243 (NSC785004), copanlisib (NSC809693), olaparib (NSC753686), talazoparib (NSC767125), cobimetinib (NSC 768068), eltanexor (KPT-8602, NSC 794443), abemaciclib (NSC 768073), sotorasib (NSC818433), adagrasib (NSC 831453), MRTX-1133 (NSC 836407), Iadademestat (ORY1001, NSC 806812), and RMC-4630 (NSC839698), were obtained from the NCI Developmental Therapeutics Program Chemical Repository. The FDA-approved anticancer drug set is available from the Developmental Therapeutics Program at https://dtp.cancer.gov/organization/dscb/obtaining/available plates.htm. […] The stock solutions were prepared in dimethyl sulfoxide (DMSO, Sigma-Aldrich, St. Louis, MO, cat. D2650) at 800-fold the tested concentration and stored at -70 degrees C prior to their use. All drugs and investigational agents were tested over a range starting from a high concentration at or near the clinical Cmax and decreasing in half-log increments. If the clinical Cmax for an agent had not been determined, the highest concentration tested was 10 microM.
The patient-derived cancer (PDC) cell lines include five colon adenocarcinomas: 186277-243-T-J2-PDC, 616215-338-R-J1-PDC, 439559-082-T-J2-PDC, 463943-066-T-J2-PDC, and 519858-162-T-J1-PDC; three pancreatic carcinomas: 323965-272-R-J2-PDC, 521955-158-R6-J3-PDC, and 521955-158-R2-J5-PDC; two uterine sarcomas: 327498-152-R-J2-PDC and 993429-296-R-J1-PDC; two rhabdomyosarcomas: 755483-174-R-J1-PDC and 772245-204-R-J1-PDC; two soft tissue sarcomas: 126254-015-R-J1-PDC and 494315-158-R-J1-PDC; two malignant fibrous histiocytomas: 317291-083-R-J1-PDC and 596521-263-R-J1-PDC; two breast carcinomas: 171881-019-R-J1-PDC and 885512-296-R-J2-PDC; and one ovarian carcinoma: 6556581-035-R-J-PDC were obtained from the NCI PDMR, (https://pdmr.cancer.gov). The established cell lines HSSY-2 synovial sarcoma (RRID:CVCL 8719), SYO-1 synovial sarcoma (RRID:CVCL_7146), MPNST malignant peripheral neural sheath tumor were obtained from the Sloan Kettering Institute. The following established cell lines were purchased from the American Type Culture Collection (ATCC, Manassas, VA), Sor the received from the NCI repository:, PANC-1 pancreatic carcinoma (CRL-1469, RRID:CVCL_0480), OVCAR-5 ovarian carcinoma (RRID:CVCL_1628), OVCAR-8 ovarian carcinoma (RRID:CVCL_1629), , MCF-7 breast carcinoma (CRL-12584, RRID:CVCL_0031), MDA-MB-231 breast carcinoma (CRL-12532, RRID:CVCL_0062), NCI-H1876 small cell lung carcinoma (CRL-5902, RRID:CVCL_1503), NCI-H510A small cell lung carcinoma (HTB-184, RRID:CVCL_1565), NCI-H1417 (CRL-5869, RRID:CVCL_1469), and NCI-H196 small cell lung carcinoma (CRL-5823, RRID:CVCL_1509). Dr. Peter Houghton (Greehey Children's Cancer Research Institute, University of Texas Health Science Center, San Antonio, TX) provided Rh-18 rhabdomyosarcoma (RRID:CVCL_1659). Pooled donor human umbilical vein endothelial cells (HUVEC, Lonza, cat. CC-2519) and human mesenchymal stem cells (hMSC, Lonza, cat. PT-2501) were purchased from Lonza (Walkersville, MD).
Cell Culture. […]

CNC(C)C(=O)NC1CN(S(=O)(=O)c2cccc(S(=O)(=O)N3CCC4CCC(C(=O)NC(c5ccccc5)c5ccccc5)N4C(=O)C(NC(=O)C(C)NC)C3)c2)CCC2CCC(C(=O)NC(c3ccccc3)c3ccccc3)N2C1=O (centres undefined)
viability, T/C (compound alone 0.01 µM): 90.3, 102, 96.3, 92.7, 92.6, 74.1, 76.6, 78.2, 84.1, 84.6, 84.7, 88.6, 84.3% [2022-10] and 101% [2022-11]
viability, T/C (compound alone 0.1 µM): 87.7, 96.5, 98.4, 88.6, 71.6, 75.5, 85.9, 72.4, 84, 98.6, 93.8, 86.2, 89% [2022-10] and 102% [2022-11]
viability, T/C (compound alone 0.316 µM): 90.8, 93.3, 84.1, 102, 85.6, 84.2, 79, 82.8, 92.3, 93.7, 80.8, 90.5, 74.1% [2022-10] and 101% [2022-11]
viability, T/C (compound alone 1 µM): 85.5, 84.6, 91.7, 78, 70.7, 91.1, 82.5, 87.6, 97, 86.2, 85.2, 86.8, 79.9% [2022-10] and 98.7% [2022-11]

Cc1c(S(C)(=O)=O)c(-c2cc(F)cc(N3CCN(c4ccc(NS(=O)(=O)c5ccc(NC(CCN6CCC(C(=O)OCCCP(=O)(O)O)CC6)CSc6ccccc6)c(S(=O)(=O)C(F)(F)F)c5)cc4)CC3)c2)c(-c2ccc(Cl)cc2)n1C(C)C (centres undefined)
viability, T/C (compound alone 0.1 µM): 98.9, 97.8, 106, 107, 105 (2×), 97.5, 115, 96.5, 100, 104, 103, 95.8, 68.9%
viability, T/C (compound alone 0.316 µM): 91.5, 92.5, 99.4, 102, 86.8, 92.9, 98.1, 89.6, 107, 104, 96.7, 110, 99.2, 60.6%
viability, T/C (compound alone 1 µM): 101 (2×), 96.4, 98.6, 95.8, 92.3, 103, 96.3, 97.7, 104, 94.3, 110, 94, 56.1%
viability, T/C (compound alone 3.16 µM): 92.2, 87.1, 98, 92, 104, 91, 102, 99.4, 97.4, 97.1, 90.8, 96.6, 107, 51%
viability, T/C (compound alone 10 µM): 81.5, 81.1, 86.7, 93.6, 101 (2×), 90.3, 97.5, 107, 89.2, 103, 98.7, 97.1, 38.2%
